The source gives no read counts; variants with many changes may rest on few reads.
B1: CPEB3 Ribozyme (parent)
chain: UAACAGGGGGCCACAGCAGAAGCGUUCACGUCGCAGCCCCUGUCAGAUUCUGGUGAAUCUGCGAAUUCUGCUGUAUAUCUC

Variants of: B1
Assay: self-cleavage, relative activity (ratio to wild type); higher = more cleavage; in vitro, sequencing
Method in brief: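 Relative activity was defined as the cleaved/total read fraction for a variant divided by the same fraction for the unmutated ribozyme. CPEB3 self-cleaving ribozyme libraries were made by rounds of error-prone PCR, barcoded, and transcribed in vitro with T7 RNA polymerase for 5 hours at 37°C, and cleavage ran through transcription plus a 15 min DNase I step before EDTA. Illumina sequencing of template-switched reverse transcripts gave the reads, and DNA sequencing mapped the barcodes. Averages come from three batches, using variants with at least 5 reads.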

Variant	self-cleavage
A18G U25C U31C U78A	0.22
A18G A47G U60G U74C U78A	0.24
A18G C37G U48C	0.25
A18G C34G G36U	0.08
A18G A57G U58A A64G	0.12
A18G U41A G46A U60C A77G	0.14
A18G C27U A35U	0.47
A18G A28U C34U	0.15
A18U U43C U72A U78C	0.06
A18U U41C G61A U69A C79U U80A	1.12
A18U U41C A65G U67A U78C	0.42
A18U A20C U51C U66C	0.3
A18G C38A U54A G63A A65U U74C A77C	0.05
A18G C44U G63U A75G	0.09
A18U U25C C39U A45G	0.11
A18G U51A U69C	1.21
A18U A45G A56G C71U	0.07
A18U C38G U41C	0.12
A18G C32U C44A U78C	0.42
A18G U41A U72C	0.42
A18G C32U U48A U60C U66C A75G	0.17
A18U U25G A47G A57U A65C	0.16
A18U C29A A64G	0.18
A18U G19C A35G	0.3

Variant	self-cleavage
A18U U66C A75C	0.29
A18U U49C U80C	0.22
A18U U26C U41C	0.2
A18G C32U C34A U43C	0.22
A18G A35U A47U	0.22
A18G C23A U31C G36C A56G U69C	0.05
A18G C29U A45G	0.25
A18U A57G C71A	0.22
A18U G19U U26A C50U	0.05
A18G A35G A56G A64U U80C	0.38
A18U U60C A75G	0.58
A18G U41C A56C	0.25
A18U A21G U66C	0.26
A18U C23U A45C U48C G70U U78C	0.11
A18U U26C U58C A64U U76C	0.14
A18G A65G U69A	0.26
A18U U25C U31C U49C U58C U66G U74C	0.05
A18G U41A U48C U78C	0.18
A18G U54C A64G	0.52
A18U U41C A57G U60C U69C	0.28
A18G C32U C39U U49A U60C U80C	0.07
A18U C32A U41C	0.14
A18G A45U U49C	0.13
A18G A45U U49A	0.18

Variant	self-cleavage
A18G G42A A64G U80C	0.3
A18G U66G A75G	0.2
A18G U43A A57G U58C A64G U76C	0.18
A18U A47G U60C G63U U69C U80C	0.12
A18U G24A U26C U80C	0.07
A18G U60C C68U U80G	0.15
A18G G46A A57G	0
A18U U31A U67C U74A	0.12
A18U G33A U60C U72A U74A	0.07
A18G U25C A35G A64U A75G A77G	0.02
A18G U60C A77G	0.19
A18G U43C U54G	0.47
A18U C40U U49G	0.11
A18U U26A C59A	0.19
A18G C32U A35U C39A U51C	0.14
A18U A28G U43A A57U	0.23
A18G A64G U78G C79U	0.77
A18G U26A C34U U43C A64U U78C	0.05
A18G G36C U48C	0.05
A18G C29U G42A A57U U58A U69C	0.12
A18U A20G C23U A35U U51G U72G	0.08
A18U A20G U25C A45G U67C G73U	0.03
A18G A28U A35U A64G U72C	0.13
A18U C37U U49C A64G	0.06

Variant	self-cleavage
A18U A65G U66C	0.16
A18U A28U U67A	0.15
A18G A45U A47U	0.26
A18U U31C A45G U58G A75U U76C	0.27
A18G U43A A77U	0.93
A18G U51A U60A	0.07
A18G A56G U58C U76C	0.14
A18G U41C U51A	0.59
A18U A45G A65G U66C U72A	0.22
A18U A21U U26C U78A	0.25
A18G U41C A47G G52A U66A	0.39
G19A A35G G36C U41A A56G U67A	0.07
A18U A35G C37A G61A U80C	0.3
A18G U43G U54A	0.27
A18U G19A A45G U69C	0.12
A18U A20G A45G U48C U58A	0.07
A18G U26C A35G U41C A64G U66C	0.15
A18G U60C A64G	0.17
A18U U41C U51A A64G U66C U78C	0.23
A18U A21G C39U A57G	0.1
A18G U48C U51G A77U	0.48
A18G U48C U72A	0.17
A18U U26A U41C A47G U48C U72C	0.25
A18U U41A U51A A64U	0.07

Variant	self-cleavage
A18U C38A A47G	0.22
A18G G30U G52A A64G	0.12
A18U A20G A35G A45U U72C	0.15
A18G A56G A65U U72A U78C	0.13
A18U G24C U72A	0.09
A18U A20G U26C U54C U72C	0.08
A18G A47G U58C U72A A75U	0.7
A18G A45G A77U	0.43
A18U U26A A75G	0.15
A18G U74G A75G	0.84
A18U A20G C40A A56G A57U A65G U72A	0.05
A18G U41C A45G	0.41
A18U A35G A47G C62G	0.2
A18G U31C A56G A65G U67C U74C A77G	0.11
A18U G52U C68U G73C A75G	0.57
A18G U25A A28G C29A C40U U76C	0.21
A18G U54C U72A	0.35
A18U A28G G33A A57U U67C	0.11
A18U G24C A28G G42A A45C U48A U69A	0.09
A18U U31C U54C G55U U66C	0.1
G19A A35G A64G U69C U76G	0.17
A18U C29G U41A U54C A57U U78C	0.05
A18G U25A U76A A77G	0.21
A18U U66C U67A U72C U76A	0.17

Variant	self-cleavage
A18G U43G A45G U76C	0.2
A18G G19U C38U A56G A75G	0.09
A18U U41C U49C A64U U67A	0.17
A18G U26C A28G C50A	0.02
A18G A35G U60A G70C	0.45
A18U U31C G33A A45U U72G U78C	0.13
A18G C39A U51A A65G U78C	0.08
A18G C38U U60C	0.28
G19A A21G U26C U41A U67C	0.07
A18G U60C A65G	0.27
A18G A65G A77G U78C	0.28
A18G U31C C40A A45C A56U	0.11
A18G C29A A64G A77U	0.15
A18G U48C U67A G70A U72C U78C	0.14
A18G U26C U54C U78C	0.07
A18G U43A A65G U72A U78C	0.36
A18G U72A C81U	0.32
A18G U31C U49C U58C	0.07
A18U A45G G61A A75G	0.11
A18G A45U A57G U69A	0.13
A18G U31C U41A U66C	0.06
A18G C40A A64G A77U	0.08
A18U A35G U60A	0.35
A18U G61A U69A	0.95

Variant	self-cleavage
A18G G33A A35C U66C U74C	0.07
A18G C34U U48C U49C U67G U72C	0.07
A18G A45G G55C	0.19
A18G U26C U31C U72G U78C	0.06
A18U U41C U67A	0.36
A18G U31C U41C U78A	0.14
A18U U41C G52C	0.33
A18U A35G U54C C59G A65G U66C	0.25
A18U U54A A56G	0.29
A18U A21G U76A	0.26
A18G C40U G63A	0.36
A18G U25A U31A G52A A56G U60A U72C	0.08
A18G G24A A35G A45U U48A A65G U69A	0.13
A18G U26C C71A	0.1
A18G U25C U78C	0.16
A18U G33A C81U	0.16
A18U C39U U48C U49G	0.08
A18G C29A U43C	0.11
A18G A56G A64C U69A U80G	0.18
A18G C29U A35G A47U U48G	0.24
A18G A57G U58C U67A U76C	0.14
A18G A35G U80C	1.18
A18G A28U A45C U60C G63U U80C	0.05
